Biological target: the molecule itself
Assay: cryo-EM structure; DOCK5^FL/ELMO1^FL cross-linked with 1 mM BS3 (also a not cross-linked sample at 7.3 Å); 20 mM HEPES-NaOH pH 8.0, 300 mM NaCl, 1 mM TCEP, 0.06% digitonin

B1: human full-length DOCK5 (DOCK5^FL, […]) (natural protein)
chain: not shown
- binding result: binds

Source: paper PMC11267001, “RhoG facilitates a conformational transition in the guanine nucleotide exchange factor complex DOCK5/ELMO1 to an open state” (The Journal of Biological Chemistry, 2024)
